# According to the supplement of paper PMC12217912:
# This is one part of the list. Sequences were assembled here from the parent chain. Inactive controls read about 0.05.
# B1: TEV protease; numbered along this chain (parent)
# chain: MGESLFKGPRDYNPISSSICHLTNESDGHTTSLYGIGFGPFIITNKHLFRRNNGTLVVQSLHGVFKVKDTTTLQQHLVDGRDMIIIRMPKDFPPFPQKLKFREPQREERICLVTTNFQTKSMSSMVSDTSCTFPSGDGIFWKHWIQTKDGQCGSPLVSTRDGFIVGIHSASNFTNTNNYFTSVPKNFMELLTNQEAQQWVSGWRLNADSVLWGGHKVFMVKPEEPFQPVKEATQL
# Variants of: B1
# Assay: raw area under fraction-flipped curve 0-4 h after induction (AUC4h, not background-subtracted), DNA-recorder readout of cleavage of the substrate (dimensionless); higher = more cleavage of the substrate by the protease variant
# Settings: temperature: 34 °C; time window: 0-4 h after rhamnose induction
# Protocol: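 In vivo DNA recorder in E. coli TOP10(DE3) ΔrhaA at 34 °C. Each TEVp single-site mutant (parent TEVp 0) is paired with a single-site variant of the 7-mer TEVs (canonical ENLYFQ|S). The substrate sits between flexible linkers in a Bxb1-sfGFP-TEVs-SsrA fusion, so cleavage stabilises Bxb1 and speeds flipping of a recombination array, read by NGS. The value is the raw area under the fraction-flipped curve over 0-4 h after rhamnose induction (AUC4h), with ≥20 reads per time point. It is not background-subtracted; inactive controls average about 0.047.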
# 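Further: Bxb1 expression induced with 0.2% (w/v) L-rhamnose at OD600 near 0.5, cultures sampled hourly, flipped fraction per protease–substrate barcode pair counted by paired-end Illumina sequencing.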
Variant,area with substrate GNLYFQS,area with substrate HNLYFQS,area with substrate INLYFQS,area with substrate KNLYFQS,area with substrate NNLYFQS,area with substrate SNLYFQS,area with substrate WNLYFQS,area with substrate FNLYFQS,area with substrate RNLYFQS,area with substrate TNLYFQS
K66Y,0.0742,0.112,0.0705,0.0676,0.0706,0.0713,0.0596,,,
Q227D,0.0666,0.0649,0.0632,0.0859,0.0658,0.0771,0.0514,0.0643,0.0609,0.0607
S4A,0.079,0.0652,,0.0754,,,0.0539,,,0.0518
P134R,0.0774,0.0668,0.058,0.0579,,0.0146,0.061,,0.0684,0.0621
T233W,,,,0.0608,0.0705,0.0497,,0.0579,,
Q97D,0.0476,,,,0.0642,0.0953,,,,
Q97E,0.0709,,,,,,,,,
Q97N,0.0717,,,,,0.0605,,,,
W141F,0.0484,,0.0922,,,0.0445,,,,0.0728
Q198P,0.0621,0.0651,0.0631,0.0546,0.0549,0.067,0.0514,,,
E189L,0.0612,0.0638,0.0678,,0.0632,0.0653,,,0.0621,0.0584
A207R,,,,,,0.0509,,0.0606,0.0512,
D137H,0.0709,,,,0.0619,,,,,
D137S,0.0804,,0.0706,,,0.0603,0.0783,,,
D137T,0.0612,0.0673,,,,0.0554,,,,
F117P,0.065,0.0733,,0.0641,,,,,,0.0694
D82V,0.0521,0.0611,,,,0.0593,0.0618,,0.0548,
T174G,0.0595,0.0649,0.0582,0.0713,0.0417,,0.058,,,
V217L,,0.0731,,,,,0.0437,0.0552,,0.0591
V217E,0.0416,0.0549,0.0549,,0.0557,0.0716,0.0621,0.0621,,
V229D,0.0781,0.0825,,,,,0.157,0.065,,
I85H,0.0698,0.058,,,0.0633,,,,,

Variant,area with substrate GNLYFQS,area with substrate HNLYFQS,area with substrate INLYFQS,area with substrate KNLYFQS,area with substrate NNLYFQS,area with substrate SNLYFQS,area with substrate WNLYFQS,area with substrate FNLYFQS,area with substrate RNLYFQS,area with substrate TNLYFQS
L5T,0.0749,,0.0596,0.0567,,,0.0566,,0.0544,0.0705
I84V,0.0429,0.0662,0.0741,,0.0646,0.0546,0.0475,,,
G2F,0.0767,,,0.0754,,,0.0586,,,0.0519
H76T,0.0438,,0.0484,,,0.0639,0.0518,,0.0718,
V210P,,0.0465,0.0468,,,,0.0564,0.0563,0.0643,0.0665
P93C,0.0725,0.04,0.0743,0.0654,,0.0656,,,,0.0701
N178S,0.0706,0.0515,,,,,0.065,,,0.0718
W199Y,,0.0616,0.0513,,,0.0568,0.0573,0.0504,,0.0062
M83R,0.0535,,,,0.0559,0.0509,0.048,,0.0634,0.0632
V183G,0.0453,0.0509,,0.0724,0.041,0.0412,0.0503,,,0.0543
P228W,,0.0673,,0.0733,0.0614,,0.0604,0.057,,0.0618
N193Y,0.0597,0.059,0.0666,0.0812,,,0.0639,,,
Q75M,0.064,0.0525,0.0654,,0.0692,0.0656,0.0645,,,0.0395
V57E,0.0654,0.0694,0.0592,0.064,,0.0764,,,,
G153I,0.0564,0.0426,,,,0.031,,,,
G153L,0.0398,,,,0.0482,0.0578,,,,
G153T,0.0636,0.0541,0.0478,0.0517,,0.0485,,,,0.0468
T119Q,0.0829,,,0.0613,,,0.0593,,,
L77R,0.0668,0.0653,0.0478,,,0.0586,0.0525,,,0.0579
S201H,,0.0643,0.0521,,,,0.0625,0.0672,,0.067
S201Q,0.101,,,,,,0.0564,0.041,,0.0773
N206R,0.0636,,0.0721,,,0.0556,0.0574,0.0482,0.0534,0.0462

# Same assay, conditions: temperature: 34 °C; time window: 0-4 h after rhamnose induction
Variant,area with substrate LNLYFQS,area with substrate PNLYFQS,area with substrate YNLYFQS,area with substrate MNLYFQS,area with substrate VNLYFQS,area with substrate QNLYFQS
S4A,0.0673,0.0784,0.0231,,,
P134R,0.0604,0.0609,0.075,0.0689,0.0535,
T233W,,0.0909,0.057,0.0662,,0.0398
Q97D,,,,0.0729,,
Q97E,,,0.0443,,,
Q97N,,0.0661,,,,
W141F,,0.0574,0.0622,0.0519,,
Q198P,,0.0845,,,0.0604,
E189L,0.0609,0.0606,0.0339,,0.0463,0.0598
D137H,0.0797,0.0738,0.0579,0.069,,
D137S,,0.0518,,,0.0726,
D137T,0.0604,0.0733,,0.0847,,
F117P,0.0472,,0.0468,,,
D82V,,0.046,,,,
T174G,0.0587,0.0523,0.0979,0.0638,0.0757,
V217L,0.0693,,,,0.0608,
V217E,,0.0641,0.05,,,
V229D,0.0697,0.0687,,,,
I85H,0.0215,,0.0491,,,

Variant,area with substrate LNLYFQS,area with substrate PNLYFQS,area with substrate YNLYFQS,area with substrate MNLYFQS,area with substrate VNLYFQS,area with substrate QNLYFQS
L5T,,0.104,,0.0688,0.0808,
I84V,,0.0731,,,0.0686,
G2F,,0.0811,0.0829,0.0835,0.0577,
H76T,0.0657,0.0597,,,,
V210P,,0.0399,0.0623,,,
P93C,,0.0604,0.0523,,,
N178S,0.0886,,0.0578,0.0626,0.0681,
W199Y,,,,0.0701,,
M83R,0.0517,,,,,
V183G,0.0444,,,0.0442,0.0447,
P228W,,0.0735,,,,
Q75M,,,0.0624,0.0637,,
V57E,,0.0517,0.0413,0.0728,,
G153I,0.057,,,,,
G153L,0.043,,0.037,0.0455,,
G153T,,,0.0463,0.0633,,
L77R,0.0924,0.0547,0.062,0.0554,0.0575,
S201H,0.0604,,0.0736,,,
N206R,0.105,0.0641,0.0755,0.0564,0.0545,
